Reference: the supplement of paper PMC7826260
This is one part of the list. The data describe in vitro nicking of single-stranded DNA by Rep domains (3 µM enzyme, 1 h, 37 °C); shown is the middle of each 90-letter strand. A value is the log2 ratio of uncut reads to the pool without enzyme; strong cutting gives strongly negative numbers. There is no active / inactive call. Shares of all reads are compared; where an enzyme cuts many sequences, the uncut ones exceed 0.

How the values were obtained:
Assay in all cases: uncleaved DNA left, log2 of reads against the no-enzyme library (log2 ratio); higher = less cleavage (more negative = more Rep cleavage of the k-mer); sequences stand for … in CTCGTCCG…ACCGGAGA
[1] = tested on: T1, Rep nickase domain of Muscovy duck circovirus
T1 sequence (residues 1-111 of Rep, tag left off): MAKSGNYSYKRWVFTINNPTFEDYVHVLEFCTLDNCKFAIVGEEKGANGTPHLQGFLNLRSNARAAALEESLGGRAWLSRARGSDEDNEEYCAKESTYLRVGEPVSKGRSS
Procedure: (§1)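 A pool of 90-nt single-stranded DNAs with seven random bases just before the constant AC of the nick site (name = the seven bases) was cut by 3 µM recombinant His6-SUMO-tagged Rep nickase domain (300 nM DNA, 50 mM HEPES pH 8.0, 50 mM NaCl, 1 mM MnCl2, 1 h, 37 °C, three replicates). Uncut DNA was amplified and sequenced.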

[2] = tested on: T2, Rep nickase domain of banana bunchy top virus
T2 sequence (residues 1-94 of Rep, tag left off): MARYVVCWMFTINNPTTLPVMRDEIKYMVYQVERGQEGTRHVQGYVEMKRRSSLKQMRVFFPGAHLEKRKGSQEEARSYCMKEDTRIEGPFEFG
Procedure: as §1

[3] = tested on: T3, Rep nickase domain of cabbage leaf curl virus
T3 sequence (residues 1-116 of Rep, tag left off): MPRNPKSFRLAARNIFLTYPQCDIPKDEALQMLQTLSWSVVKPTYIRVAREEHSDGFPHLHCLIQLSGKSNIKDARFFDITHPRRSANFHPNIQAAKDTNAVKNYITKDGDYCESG
Procedure: as §1

[4] = tested on: T4, Rep nickase domain of chickpea chlorotic dwarf virus
T4 sequence (residues 1-124 of Rep, tag left off): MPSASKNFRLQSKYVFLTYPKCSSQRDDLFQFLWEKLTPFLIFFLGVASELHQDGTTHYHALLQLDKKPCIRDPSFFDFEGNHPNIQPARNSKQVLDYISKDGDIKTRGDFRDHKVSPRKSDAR
Procedure: as §1

[5] = tested on: T5, Rep nickase domain of faba bean necrotic yellows virus
T5 sequence (residues 1-98 of Rep, tag left off): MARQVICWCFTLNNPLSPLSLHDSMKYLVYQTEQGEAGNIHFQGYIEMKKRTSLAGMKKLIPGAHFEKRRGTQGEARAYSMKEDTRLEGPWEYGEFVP
Procedure: as §1

[6] = tested on: T6, Rep nickase domain of maize striate mosaic virus
T6 sequence (residues 1-117 of Rep, tag left off): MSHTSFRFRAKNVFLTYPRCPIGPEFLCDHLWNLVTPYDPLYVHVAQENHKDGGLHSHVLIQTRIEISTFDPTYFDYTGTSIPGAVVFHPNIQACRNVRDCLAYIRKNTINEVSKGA
Procedure: as §1

[7] = tested on: T7, Rep nickase domain of porcine circovirus 2
T7 sequence (residues 2-116 of Rep, tag left off): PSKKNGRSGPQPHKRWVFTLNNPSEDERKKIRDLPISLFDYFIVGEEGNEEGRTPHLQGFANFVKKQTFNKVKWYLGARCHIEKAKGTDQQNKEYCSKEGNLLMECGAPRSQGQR
Procedure: as §1

[8] = tested on: T8, Rep nickase domain of tomato golden mosaic virus
T8 sequence (residues 1-124 of Rep, tag left off): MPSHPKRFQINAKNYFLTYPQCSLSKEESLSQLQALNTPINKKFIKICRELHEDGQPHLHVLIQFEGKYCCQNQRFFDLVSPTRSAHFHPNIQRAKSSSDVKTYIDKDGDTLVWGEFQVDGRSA
Procedure: as §1

[9] = tested on: T9, Rep nickase domain of tomato yellow leaf curl virus
T9 sequence (residues 1-136 of Rep, tag left off): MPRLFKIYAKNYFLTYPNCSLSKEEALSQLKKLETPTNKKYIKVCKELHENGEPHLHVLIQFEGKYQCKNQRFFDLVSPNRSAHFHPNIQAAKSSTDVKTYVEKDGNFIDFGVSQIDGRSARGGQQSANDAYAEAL
Procedure: as §1

[10] = tested on: T10, Rep nickase domain of wheat dwarf virus
T10 sequence (residues 1-137 of Rep, tag left off): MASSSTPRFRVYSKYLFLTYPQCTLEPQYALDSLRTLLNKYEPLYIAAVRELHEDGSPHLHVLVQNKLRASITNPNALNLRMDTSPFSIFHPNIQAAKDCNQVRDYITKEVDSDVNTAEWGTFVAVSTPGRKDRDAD
Procedure: as §1

Row | Sequence | uncleaved DNA left (log2) [1] | uncleaved DNA left (log2) [2] | uncleaved DNA left (log2) [3] | uncleaved DNA left (log2) [4] | uncleaved DNA left (log2) [5] | uncleaved DNA left (log2) [6] | uncleaved DNA left (log2) [7] | uncleaved DNA left (log2) [8] | uncleaved DNA left (log2) [9] | uncleaved DNA left (log2) [10]
1 | CTAGCCG | -0.0615 | -0.0791 | -0.849 | -0.414 | 0.0723 | -0.872 | 0.0879 | -0.0202 | 0.0201 | -0.0379
2 | CCGGACC | -0.135 | -0.0807 | 0.126 | 0.501 | -0.119 | 0.763 | -0.0152 | -0.135 | -0.0148 | -0.0898
3 | TTAGACT | 0.0291 | -0.0808 | 0.0975 | -0.597 | -0.0132 | 1.13 | 0.0573 | -0.0209 | -0.0236 | -0.0359
4 | AAAGAGA | 0.0731 | 0.0396 | 0.316 | 0.444 | 0.112 | -0.235 | 0.136 | 0.15 | -0.0978 | 0.107
5 | ACCTTGA | -0.0281 | 0.00487 | -0.439 | -0.484 | -0.1 | -1.24 | 0.0608 | 0.0397 | 0.00878 | -0.0805
6 | CATTCCG | 0.000447 | -0.0104 | -0.532 | 0.818 | 0.0877 | -0.253 | 0.209 | -0.131 | 0.108 | -0.0126
7 | GTCAAAG | 0.0695 | 0.189 | 0.298 | 0.796 | -0.0492 | 1.31 | 0.198 | 0.12 | 0.109 | 0.107
8 | AATTTTT | -3.57 | -3.79 | -2.11 | -3.05 | -0.665 | -0.917 | -3.94 | -0.796 | -0.0976 | -0.812
9 | ATCCCAC | -0.0579 | 0.0324 | -0.0803 | -0.292 | 0.0647 | -0.574 | 0.0348 | -0.108 | -0.0768 | 0.143
10 | AAACCGT | 0.0254 | 0.00969 | -0.411 | -1.72 | 0.0806 | -0.865 | -0.0159 | 0.0743 | 0.0606 | -0.0862
11 | AGAAAGC | 0.0452 | -0.00915 | -0.148 | -0.178 | 0.0323 | -0.937 | 0.12 | 0.0911 | 0.0192 | 0.0242
12 | GTCTAGG | 0.153 | 0.139 | 0.467 | 1.09 | 0.0526 | 1.8 | 0.104 | 0.122 | 0.0637 | 0.146
13 | ATGCCCG | 0.146 | 0.0256 | -0.719 | -0.12 | 0.22 | -0.802 | -0.0847 | -0.0471 | -0.0849 | -0.0217
14 | TTGAAGG | 0.0263 | 0.00646 | 0.466 | 1.23 | 0.0266 | 1.26 | 0.127 | 0.0436 | -0.181 | 0.0243
15 | AAAAGGA | -0.00296 | -0.00155 | 0.203 | 0.499 | 0.0541 | -0.0737 | 0.131 | 0.0802 | -0.114 | 0.00392
